The text below walks through data of publication PMC5319980, “Mutant Analysis Reveals Allosteric Regulation of ClpB Disaggregase” (Frontiers in Molecular Biosciences, 2017).

This data set concerns the molecule itself. The experiment in a line: cross-linking; 1 µM ClpB in Reaction Buffer B (50 mM HEPES pH 7.5, 25 mM KCl, 5 mM MgCl2, 2 mM DTT), 25°C, 5 min with ATPγS, then 0.1% glutaraldehyde; stopped after 2 and 10 min with 1 M Tris pH 7.5; SDS-PAGE (4-15%), Sypro Ruby staining.

B1: ClpB-A328L (natural protein)
chain: not shown
notes: ClpB of E. coli with the AAA-1 subunit interface mutation A328L, made by PCR mutagenesis in pDS56; source: E. coli ΔclpB::kan cells, overproduced from pDS56, purified (Ni-IDA, size exclusion chromatography Superdex S200)
Turning to B1, the binding result is “binds”.

B2: ClpB-A328I (natural protein)
chain: not shown
notes: ClpB of E. coli with the AAA-1 subunit interface mutation A328I, made by PCR mutagenesis in pDS56; source: E. coli ΔclpB::kan cells, overproduced from pDS56, purified (Ni-IDA, size exclusion chromatography Superdex S200)
As for B2, the binding result is reported as “binds”.
